Experimental data published in article PMC5167418, “A Novel Functional Domain of Tab2 Involved in the Interaction with Estrogen Receptor Alpha in Breast Cancer Cells” (PLoS ONE, 2016).
These are yes or no findings as the source states them, for the method shown. In cells and extracts the contact can be indirect. Some results given as binding are weak or reduced against the parent protein; the word gives no strength. For part of these data: Where a sequence is shown, tags or fusion partners need not be part of it. One block for each molecule: values may come before it.

Amino acid sequences for entries named in this document (tags omitted).
UniProt P10275: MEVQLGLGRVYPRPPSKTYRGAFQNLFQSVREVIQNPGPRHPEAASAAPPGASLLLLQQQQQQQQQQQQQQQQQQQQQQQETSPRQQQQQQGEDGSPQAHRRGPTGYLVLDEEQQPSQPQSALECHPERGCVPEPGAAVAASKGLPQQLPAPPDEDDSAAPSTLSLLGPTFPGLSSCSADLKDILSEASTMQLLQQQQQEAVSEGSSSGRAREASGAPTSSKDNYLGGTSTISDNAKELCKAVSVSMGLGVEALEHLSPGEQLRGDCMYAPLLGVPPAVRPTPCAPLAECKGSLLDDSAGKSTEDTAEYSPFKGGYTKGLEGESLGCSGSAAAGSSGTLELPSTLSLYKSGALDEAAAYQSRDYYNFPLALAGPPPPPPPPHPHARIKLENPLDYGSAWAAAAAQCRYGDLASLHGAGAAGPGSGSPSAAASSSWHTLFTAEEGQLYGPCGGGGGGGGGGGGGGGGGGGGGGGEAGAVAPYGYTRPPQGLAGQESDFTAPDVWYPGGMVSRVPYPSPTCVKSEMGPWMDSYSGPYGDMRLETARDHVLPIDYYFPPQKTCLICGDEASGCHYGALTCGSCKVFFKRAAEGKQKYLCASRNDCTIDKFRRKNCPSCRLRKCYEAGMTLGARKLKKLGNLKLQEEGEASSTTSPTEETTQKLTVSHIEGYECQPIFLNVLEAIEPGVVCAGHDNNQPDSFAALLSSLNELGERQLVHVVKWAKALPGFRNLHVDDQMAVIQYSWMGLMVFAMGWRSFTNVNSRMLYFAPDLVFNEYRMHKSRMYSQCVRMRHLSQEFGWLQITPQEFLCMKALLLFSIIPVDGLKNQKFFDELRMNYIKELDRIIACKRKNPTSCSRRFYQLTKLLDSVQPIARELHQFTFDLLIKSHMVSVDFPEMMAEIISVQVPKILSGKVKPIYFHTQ

How the values were obtained:
[1] = biological target: T1, T7-tagged Tab2(406–531) (human) (UniProt Q9NYJ8); assay: co-IP; HEK293T cells transiently co-transfected; total lysates in RIPA buffer; 15 μg anti-NFkB-p65 or anti-epitope T7 antibody overnight at 4°C, protein A sepharose; immunoblot with anti-ERα, anti-Flag and anti-T7
T1 sequence: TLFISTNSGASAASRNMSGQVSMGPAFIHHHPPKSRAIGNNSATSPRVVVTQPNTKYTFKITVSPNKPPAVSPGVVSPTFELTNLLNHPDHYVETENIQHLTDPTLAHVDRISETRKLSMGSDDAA

[2] = biological target: T2, MBP-Tab2(406–531) (human) (UniProt Q9NYJ8); assay: pull-down; 10 μg MBP-Tab2 fusion incubated with ERα-overexpressing HEK293T cell lysate 1.5 h at 4°C in pull-down buffer (125 mM NaCl, 20 mM Tris/HCl pH 7.8, 10% glycerol, 0.1% NP-40, 0.5 mM DTT), amylose resin, immunoblot; only the target purified
T2 sequence: T1 sequence

MBP-1-350Tab2 (human) = biological target: T3, MBP-1-350Tab2 (human) (UniProt Q9NYJ8); assay: as above
T3 sequence: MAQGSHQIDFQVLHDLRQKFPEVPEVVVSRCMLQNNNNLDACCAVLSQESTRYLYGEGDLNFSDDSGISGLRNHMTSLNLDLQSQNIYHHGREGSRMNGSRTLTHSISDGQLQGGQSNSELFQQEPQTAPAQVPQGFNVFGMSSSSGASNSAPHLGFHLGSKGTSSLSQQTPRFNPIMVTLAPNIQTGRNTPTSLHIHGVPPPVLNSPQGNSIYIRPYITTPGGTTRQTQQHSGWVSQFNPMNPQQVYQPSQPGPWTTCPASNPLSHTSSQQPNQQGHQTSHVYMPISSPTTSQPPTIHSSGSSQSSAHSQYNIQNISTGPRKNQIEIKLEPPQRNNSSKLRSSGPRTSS

[3] = biological target: T4, MBP-Tab2 full-length (human) (UniProt Q9NYJ8); assay: as above
T4 sequence: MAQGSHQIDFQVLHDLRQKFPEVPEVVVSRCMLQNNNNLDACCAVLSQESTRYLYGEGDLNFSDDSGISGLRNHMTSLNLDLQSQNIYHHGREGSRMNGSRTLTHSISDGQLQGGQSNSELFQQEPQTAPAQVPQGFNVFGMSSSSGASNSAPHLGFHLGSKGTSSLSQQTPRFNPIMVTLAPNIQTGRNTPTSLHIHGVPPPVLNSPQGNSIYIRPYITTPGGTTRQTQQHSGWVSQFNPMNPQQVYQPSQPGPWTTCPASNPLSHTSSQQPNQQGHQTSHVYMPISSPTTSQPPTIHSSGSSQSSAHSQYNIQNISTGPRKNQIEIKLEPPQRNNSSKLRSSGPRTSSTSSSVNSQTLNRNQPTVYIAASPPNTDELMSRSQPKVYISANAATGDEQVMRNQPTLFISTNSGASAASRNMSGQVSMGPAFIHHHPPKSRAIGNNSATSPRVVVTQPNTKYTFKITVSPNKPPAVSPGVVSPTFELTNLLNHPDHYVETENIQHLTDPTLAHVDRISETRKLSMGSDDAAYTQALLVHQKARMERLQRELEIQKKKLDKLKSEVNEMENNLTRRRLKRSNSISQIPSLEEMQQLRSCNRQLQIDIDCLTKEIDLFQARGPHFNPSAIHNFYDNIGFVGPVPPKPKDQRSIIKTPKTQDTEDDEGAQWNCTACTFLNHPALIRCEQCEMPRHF

[4] = biological target: T2, MBP-Tab2(406–531) (human); assay: pull-down; competition: 10 μg MBP-Tab2 fusion preincubated 1 h at 4°C with 5 μl in vitro translated Tab2(406–531), then ERα-overexpressing HEK293T cell lysate 1.5 h at 4°C, amylose resin, immunoblot; the pair that is blocked; only the target purified
[5] = biological target: T4, MBP-Tab2 full-length (human); assay: as above
GST-ERα (1–45) (human) = GST-ERα (1–45) (human) (UniProt P03372); assay: pull-down; 10 μg GST-ERα (1–45) or GST alone incubated with 5 μl in vitro translated Tab2(406–531) 2 h at 4°C in pull-down buffer, glutathione resin, immunoblot; only the target purified
[6] = biological target: ERα (overexpressed in HEK293T cells) (human) (UniProt P03372); assay: pull-down; competition: 5 μl in vitro translated Tab2(406–531) as competitor of MBP-Tab2 fusions for ERα of HEK293T cell lysate, amylose resin, immunoblot
[7] = biological target: p65-tagged ERα(1–60) (human) (UniProt P03372); assay: co-IP; HEK293T cells transiently co-transfected; total lysates in RIPA buffer; 15 μg anti-NFkB-p65 or anti-epitope T7 antibody overnight at 4°C, protein A sepharose; immunoblot with anti-ERα, anti-Flag and anti-T7
Recombinant human ERα = biological target: T5, Recombinant human ERα (human, UniProt P03372 1-595); assay: pull-down; competition screening: in vitro translated fragments of Tab2(406–531) as competitors of MBP-Tab2(406–531) for recombinant hERα (1 nM); only the target purified
T5 construct: recombinant human ERα, bought; also called recombinant hERα; source: bought: Life Technologies
T5 sequence (looked up): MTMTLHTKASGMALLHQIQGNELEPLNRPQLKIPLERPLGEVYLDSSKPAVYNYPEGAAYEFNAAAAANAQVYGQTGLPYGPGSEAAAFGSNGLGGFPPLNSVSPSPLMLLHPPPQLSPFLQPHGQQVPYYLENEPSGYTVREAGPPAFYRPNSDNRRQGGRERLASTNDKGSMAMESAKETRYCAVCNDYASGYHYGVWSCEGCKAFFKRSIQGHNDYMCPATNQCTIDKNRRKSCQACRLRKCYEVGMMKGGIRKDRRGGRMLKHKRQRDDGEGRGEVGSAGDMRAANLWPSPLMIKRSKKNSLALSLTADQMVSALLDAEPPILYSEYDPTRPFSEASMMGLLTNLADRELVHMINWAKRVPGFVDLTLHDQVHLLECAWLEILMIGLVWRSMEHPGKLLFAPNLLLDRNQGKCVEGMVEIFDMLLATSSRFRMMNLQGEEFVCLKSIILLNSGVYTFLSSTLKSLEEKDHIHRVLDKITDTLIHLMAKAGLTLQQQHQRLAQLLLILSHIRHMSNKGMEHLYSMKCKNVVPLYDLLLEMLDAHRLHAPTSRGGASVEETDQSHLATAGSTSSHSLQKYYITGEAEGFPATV

Molecule: Flag-tagged full-length ERα (from UniProt P03372 1-595)
- binding [1]: binds

Molecule: p65-tagged ERα(1–60) (from UniProt P03372 1-60) (domain or fragment)
- binding [1]: binds

Molecule: ERα (overexpressed in HEK293T cells) (from UniProt P03372 1-595)
- binding [2]: binds
- binding (MBP-1-350Tab2 (human)): no binding
- binding [3]: binds
- binding [4]: binds
- binding [5]: binds

B1: in vitro transcribed and translated Tab2(406–531) (domain or fragment, UniProt Q9NYJ8 406-531)
chain: T1 sequence
- binding (GST-ERα (1–45) (human)): binds
- binding [6]: binds

Second part, the molecule after the results:

- binding [1]: binds
Molecule: Flag-tagged full-length AR (from UniProt P10275 1-920)

- binding [7]: binds
B2: T7-tagged Tab2(406–531) (domain or fragment, UniProt Q9NYJ8 406-531)
chain: T1 sequence

- binding (Recombinant human ERα): binds
Molecule: NKPPAVSPGVVSPTFELTNLLNHPDHYVETENIQ (domain or fragment, UniProt Q9NYJ8 471-504) [Fragment 4 of Tab2(406–531)]
